Test results as given in the supplement of paper PMC10369915.
The other results are listed elsewhere or left out. No stated cut-off is given here; in the data, active = 3.2 or more and inactive = the rest. Most of these values are background signal.

B1: ARID1B_Y1091_V1092I (peptide)
chain: DLFRLYICVKE
B2: ASPA_Y64 (peptide)
chain: KKCTRYIDCDL
B3: ASS1_Y291_Y291S (peptide)
chain: AGTILSHAHLD
B4: ASCC1_Y36 (peptide)
chain: DEEDFYQGSME
B5: ASPA_Y64_D68A (peptide)
chain: KKCTRYIDCAL
B6: ASS1_Y87_R86C_YF (peptide)
chain: LFEDCYLLGTS
B7: ASS1_Y83 (peptide)
chain: QSSALYEDRYL
B8: ARHGEF7_Y785 (peptide)
chain: WTAHSYRMGST
B9: ASS1_Y359_R363Q (peptide)
chain: LKGQVYILGQE
B10: ASB2_Y162_P160S (peptide)
chain: RETSLYKACER
B11: ASS1_Y83_R86H (peptide)
chain: QSSALYEDHYL
B12: ASAH1_Y43 (peptide)
chain: PSGPTYRGAVP
B13: ASS1_Y359_R363W (peptide)
chain: LKGQVYILGWE
B14: ASCC1_Y36_D34N (peptide)
chain: DEENFYQGSME
B15: ARMC9_Y107_L108F (peptide)
chain: IHFAIYFLKYS
B16: ARVCF_Y901 (peptide)
chain: LGPDGYSTVDR
B17: ARSB_Y165 (peptide)
chain: RGFDTYFGYLL
B18: ASS1_Y322 (peptide)
chain: FAELVYTGFWH
B19: ASS1_Y291_D296G (peptide)
chain: AGTILYHAHLG
B20: ARMC9_Y107_L108F_YF (peptide)
chain: IHFAIYFLKFS
B21: ASS1_Y359_G356V (peptide)
chain: LKVQVYILGRE
B22: ASAH1_Y43_T42M (peptide)
chain: PSGPMYRGAVP
B23: ASS1_Y113_A111D (peptide)
chain: REGDKYVSHGA
B24: ARHGEF7_Y785_T790A (peptide)
chain: WTAHSYRMGSA
B25: ASB10_Y457 (peptide)
chain: PRLLRYLQLDF
B26: ASS1_Y113 (peptide)
chain: REGAKYVSHGA
B27: ASS1_Y291 (peptide)
chain: AGTILYHAHLD
B28: ASS1_Y83_R86C (peptide)
chain: QSSALYEDCYL
B29: ASS1_Y113_A118T (peptide)
chain: REGAKYVSHGT
B30: ASS1_Y359_G362V (peptide)
chain: LKGQVYILVRE
B31: ASS1_Y83_YF (peptide)
chain: QSSALYEDRFL
B32: ASNS_Y555 (peptide)
chain: RTLTHYKSAVK
B33: ASL_Y375_K380E (peptide)
chain: ATDLAYYLVRE
B34: ASS1_Y291_L290P (peptide)
chain: AGTIPYHAHLD
B35: ASS1_Y359_Y359D (peptide)
chain: LKGQVDILGRE
B36: ASS1_Y163_A164P (peptide)
chain: NDLMEYPKQHG
B37: ASIC2_Y357 (peptide)
chain: EKDSNYCLCRT

How the values were obtained:
Assay in all cases: enrichment score (SH2-bound / input frequency) (ratio); bacterial display of known human phosphotyrosine sites (pTyr-Var adds point mutants) read by sequencing; higher = stronger binding; tyrosines were phosphorylated by kinases first
Details in all cases: peptide library: pTyr-Var
[1] = biological target: SHP2 C-SH2 domain E139D
[2] = biological target: SHP2 C-SH2 domain wild-type
[3] = biological target: SHP2 N-SH2 domain L43F
[4] = biological target: SHP2 N-SH2 domain T42A
[5] = biological target: SHP2 N-SH2 domain T52S
[6] = biological target: SHP2 N-SH2 domain wild-type
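Further: displayed peptides selected on beads carrying the immobilized SH2 domain, with library peptides lacking any tyrosine serving as negative controls.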

| Binder | enrichment score [1] | enrichment score [2] | enrichment score [3] | enrichment score [4] | enrichment score [5] | enrichment score [6] |
| --- | --- | --- | --- | --- | --- | --- |
| B1 | inactive: 0.631 | inactive: 1.04 | inactive: 0.741 | inactive: 0.566 | inactive: 0.843 | inactive: 1.22 |
| B2 | inactive: 0.897 | inactive: 0.838 | inactive: 1.06 | inactive: 1.23 | inactive: 0.919 | inactive: 0.796 |
| B3 | inactive: 1.04 | inactive: 0.98 | inactive: 1.05 | inactive: 0.881 | inactive: 1.29 | inactive: 1.19 |
| B4 | inactive: 0.712 | inactive: 1.11 | inactive: 0.644 | inactive: 0.494 | inactive: 0.466 | inactive: 0.725 |
| B5 | inactive: 1.16 | inactive: 1.46 | inactive: 1.04 | inactive: 1.11 | inactive: 1.09 | inactive: 1.01 |
| B6 | inactive: 0.938 | inactive: 1.04 | inactive: 0.93 | inactive: 0.862 | inactive: 0.883 | inactive: 0.99 |
| B7 | inactive: 0.664 | inactive: 0.55 | inactive: 0.714 | inactive: 0.686 | inactive: 0.728 | inactive: 1.05 |
| B8 | inactive: 0.76 | inactive: 0.756 | inactive: 1.09 | inactive: 0.844 | inactive: 0.792 | inactive: 0.756 |
| B9 | inactive: 1.28 | inactive: 1.15 | inactive: 1.33 | inactive: 1.14 | inactive: 1.35 | inactive: 0.965 |
| B10 | inactive: 0.615 | inactive: 0.711 | inactive: 0.448 | inactive: 0.595 | inactive: 0.555 | inactive: 0.599 |
| B11 | inactive: 0.338 | inactive: 0.475 | inactive: 0.443 | inactive: 0.388 | inactive: 0.368 | inactive: 0.48 |
| B12 | inactive: 0.605 | inactive: 0.695 | inactive: 0.657 | inactive: 0.476 | inactive: 0.516 | inactive: 0.591 |
| B13 | inactive: 2.37 | inactive: 2.53 | inactive: 2.68 | inactive: 2.42 | inactive: 2.98 | inactive: 2.83 |
| B14 | inactive: 0.81 | inactive: 0.724 | inactive: 0.707 | inactive: 0.58 | inactive: 0.813 | inactive: 0.872 |
| B15 | active: 3.37 | inactive: 2.74 | inactive: 2.55 | inactive: 2.58 | inactive: 3.09 | inactive: 2.15 |
| B16 | inactive: 0.618 | inactive: 0.742 | inactive: 0.558 | inactive: 0.861 | inactive: 0.572 | inactive: 0.54 |
| B17 | inactive: 0.871 | inactive: 1.25 | inactive: 0.735 | inactive: 0.801 | inactive: 0.956 | inactive: 0.94 |
| B18 | inactive: 1.72 | inactive: 1.5 | inactive: 1.41 | inactive: 1.53 | inactive: 1.69 | inactive: 1.64 |
| B19 | inactive: 1.47 | inactive: 1.96 | inactive: 1.54 | inactive: 1.62 | inactive: 1.58 | inactive: 1.46 |

| Binder | enrichment score [1] | enrichment score [2] | enrichment score [3] | enrichment score [4] | enrichment score [5] | enrichment score [6] |
| --- | --- | --- | --- | --- | --- | --- |
| B20 | inactive: 2.98 | inactive: 2.95 | inactive: 2.86 | inactive: 2.73 | inactive: 2.18 | inactive: 2.42 |
| B21 | inactive: 1.74 | inactive: 1.27 | inactive: 1.87 | inactive: 1.38 | inactive: 2.05 | inactive: 1.16 |
| B22 | inactive: 0.737 | inactive: 0.665 | inactive: 0.654 | inactive: 0.677 | inactive: 0.764 | inactive: 0.715 |
| B23 | inactive: 0.665 | inactive: 0.328 | inactive: 0.456 | inactive: 0.35 | inactive: 0.641 | inactive: 0.504 |
| B24 | inactive: 1.02 | inactive: 1 | inactive: 1.01 | inactive: 0.819 | inactive: 0.992 | inactive: 1 |
| B25 | active: 3.37 | active: 3.66 | active: 11.3 | active: 13.5 | active: 13.3 | active: 6.32 |
| B26 | inactive: 0.745 | inactive: 0.506 | inactive: 0.564 | inactive: 0.422 | inactive: 0.419 | inactive: 0.632 |
| B27 | inactive: 1.62 | inactive: 1.39 | inactive: 1.29 | inactive: 1.18 | inactive: 1.54 | inactive: 1.54 |
| B28 | inactive: 1.02 | inactive: 0.938 | inactive: 0.806 | inactive: 0.847 | inactive: 0.929 | inactive: 1.16 |
| B29 | inactive: 0.495 | inactive: 0.433 | inactive: 0.405 | inactive: 0.393 | inactive: 0.461 | inactive: 0.601 |
| B30 | inactive: 0.723 | inactive: 0.544 | inactive: 0.728 | inactive: 0.672 | inactive: 0.546 | inactive: 0.558 |
| B31 | inactive: 0.676 | inactive: 0.881 | inactive: 0.926 | inactive: 0.494 | inactive: 0.593 | inactive: 1.1 |
| B32 | inactive: 0.557 | inactive: 0.622 | inactive: 0.665 | inactive: 0.611 | inactive: 0.558 | inactive: 0.72 |
| B33 | inactive: 0.774 | inactive: 1.14 | inactive: 0.648 | inactive: 1.65 | inactive: 0.614 | inactive: 0.979 |
| B34 | inactive: 1.24 | inactive: 1.12 | inactive: 1.25 | inactive: 1.06 | inactive: 1.09 | inactive: 1.14 |
| B35 | inactive: 1.03 | inactive: 0.92 | inactive: 1.48 | inactive: 1.12 | inactive: 1.15 | inactive: 1.29 |
| B36 | inactive: 0.687 | inactive: 0.748 | inactive: 0.645 | inactive: 0.611 | inactive: 0.732 | inactive: 0.664 |
| B37 | inactive: 0.638 | inactive: 0.545 | inactive: 0.564 | inactive: 0.502 | inactive: 0.538 | inactive: 0.608 |
